# Test results published in PubChem BioAssay AID1508642 (National Center for Advancing Translational Sciences (NCATS), 2021).
# The campaign covered roughly 43,000 compounds. About 200 (0.47%) were called active. About 12% were inconclusive and are not listed. Calls follow the shape of the dose curve; as a rule, active = well fitted cell-killing curve with a large enough effect; inconclusive = small, poorly fitted or top-dose-only effect, or effect the other way; inactive = flat fitted curve, though single readings scatter. This is one part of the list.
# Experiment: Cell viability qHTS assay in S16 Pmp22-F2sN cells; also: nearly all actives have a fitted effect of over 65% in size
# Conditions: S16 Pmp22-F2sN Schwann cells (luciferase reporters placed in the Pmp22 gene) viability, CellTiter-Glo, 24 h; series mostly up to 57.5 µM; activity change, negative = cytotoxicity: at the top concentration
# Summary of the method: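 S16 Schwann cells carrying the Pmp22-F2sN reporter, seeded in 1536-well format, were exposed to library compounds for 24 h at 37C. Viability was read as CellTiter-Glo luminescence after 15 min at room temperature.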
# % is scaled to controls: 0 for no effect and ±100 for the full control effect.
row,SMILES,"activity change, negative = cytotoxicity"
1,Cc1cc2oc(C(=O)Nc3ccc(S(N)(=O)=O)cc3)cc(=O)c2cc1C,inactive: 2.48%
2,CCc1cccc(NC(=O)CN2C(=O)COc3ccc(S(=O)(=O)Nc4ccccc4)cc32)c1,inactive: 3.49%
3,Cc1ccc(CNC(=O)c2ccc3c(c2)nc(C)n3-c2cccc(F)c2)cc1,inactive: 8.41%
4,CC(NC(=O)c1ccc2c(c1)CCN2S(C)(=O)=O)c1ccccc1 (centres undefined),inactive: 28.3%
5,Cc1c(Cl)cccc1NC(=O)c1cccc(NC(=O)N2CCSc3ncccc32)c1,inactive: -1.57%
6,CCCCOc1ccc(-c2nn(-c3ccccc3)cc2C2NC(=O)NC(C)=C2C(=O)OCC)cc1 (centres undefined),inactive: -8.92%
7,Cc1cc(C(F)(F)F)n2nc(-c3ccc(Br)cc3)cc2n1,inactive: 5.08%
8,CCC(=O)N1CCc2cc(S(=O)(=O)NC(C(=O)NCCc3ccccc3)C(C)C)ccc21 (centres undefined),inactive: -1.77%
9,Cc1cc(C)c(NC(=O)C(C)n2c(=O)c(C(F)(F)F)nc3ccccc32)c(C)c1 (centres undefined),inactive: -4.55%
10,CCOC(=O)CC(NC(=O)CCc1c(C)nc2c(c(C)nn2-c2ccc(C)c(C)c2)c1C)c1ccc(C)cc1 (centres undefined),inactive: -3.09%
11,Cc1cc(C)cc(OCC(=O)Nc2nc3c(s2)CC(C(C)(C)C)CC3)c1 (centres undefined),inactive: 20.9%
12,Cc1cccc(-n2ncc(C(=O)N3CCN(C4CCCCC4)CC3)c2C2CCN(C(=O)OC(C)(C)C)CC2)c1,inactive: -8.19%
13,COc1ccc(OC)c2sc(NC(=O)c3ccc(S(=O)(=O)N4CCCC4)cc3)nc12,inactive: -3.84%
14,COc1ccccc1-c1nc(SCC(=O)c2ccccc2)n[nH]1,inactive: 15.8%
15,COc1cccc(CNC(=O)Cn2c(=O)ccc3cc(S(=O)(=O)N4CCC(C)CC4)ccc32)c1,inactive: -0.536%
16,COc1ccc(-n2c3c(c(=O)[nH]c2=O)C(NC(=O)c2ccccc2Cl)(C(F)(F)F)C(=O)N3)cc1 (centres undefined),inactive: 9.28%
17,CCN(c1cccc(C)c1)S(=O)(=O)c1ccc(N2CCCCS2(=O)=O)cc1,inactive: 7.25%
18,Cc1ccc(NC(=O)c2cc(S(=O)(=O)N(C)C3CCCCC3)ccc2F)cc1C,inactive: -2.93%
19,COc1ccccc1C(=O)Oc1c(Sc2ccccc2)c(C)nn1C(C)(C)C,inactive: -20.7%
20,COc1ccc(CNc2nc(SCc3ccc(Cl)cc3)nc3ccccc23)cc1,inactive: -4.5%
21,COc1ccc2[nH]c(=O)c(CN(C(=O)c3cccc(Cl)c3)c3ccccc3C)cc2c1,inactive: -25%
22,CCOc1ccc(C(=O)c2cn(CC(=O)Nc3ccc(OC)cc3)c3cc4c(cc3c2=O)OCCO4)cc1,inactive: 19.6%
23,C#CCn1c(C2CC(=O)N(c3ccc(OC)cc3)C2)nc2ccccc21 (centres undefined),inactive: -1.81%
24,CC(C)CCn1c(=O)c2cccnc2n(CC(=O)Nc2ccc(F)cc2)c1=O,inactive: -4.44%

row,SMILES,"activity change, negative = cytotoxicity"
1,Cc1cc2nnc(SCc3ccc(F)cc3)n2c2ccccc12,inactive: 9.91%
2,CC1CN(c2ccc(Cl)cc2)c2nc3c(c(=O)n(CC(=O)O)c(=O)n3C)n2C1 (centres undefined),inactive: -1.94%
3,COc1ccc2occ(CC(=O)Nc3ccc(S(=O)(=O)Nc4nccc(C)n4)cc3)c2c1,inactive: 9.28%
4,Cc1ccc(CNC(=O)c2sc3nc[nH]c(=O)c3c2C)cc1,inactive: -3.01%
5,COc1ccc(OCC(=O)Nc2nnc(S(=O)(=O)N3CCc4ccccc43)s2)cc1,inactive: -3.58%
6,Cc1cccc(C)c1Nc1c(-c2ccccc2F)nc2cccc(C)n12,inactive: -0.173%
7,CCOC(=O)c1ccccc1NC(=O)C1CCN(c2ncnc3c2nc2n3CCCCC2)CC1,inactive: 0.681%
8,CCCCN(CC)CCNC(=O)c1c(C)oc2ncnc(N3CCOCC3)c12,inactive: -6.83%
9,COC(=O)c1ccccc1NC(=O)C1=CC(c2ccc(C)cc2)=NS(=O)(=O)N1C,inactive: -9.99%
10,Cc1cc(C)cc(NC(=O)CN(c2cc(C(F)(F)F)ccc2Cl)S(=O)(=O)c2ccccc2)c1,inactive: 1.27%
11,O=C(CN1CCN(Cc2ccc(F)cc2)C1=O)NCc1ccccc1Cl,inactive: 6.02%
12,COc1cccc(-c2nn(C)c3sc(C(=O)NCc4cc(OC)ccc4OC)cc23)c1,inactive: -18.7%
13,COc1ccc(OC)c(NC(=O)c2cc3c(n(-c4ccc(Cl)cc4)c2=O)CC(C)(C)CC3=O)c1,inactive: -0.777%
14,COc1ccccc1NC(c1ccc(Cl)cc1)c1nnc(-c2cccc(F)c2)o1 (centres undefined),inactive: -7.21%
15,CC(=O)c1ccc(NC(=O)CCc2c(C)nc3c(c(C)nn3-c3ccc(C)cc3)c2C)cc1,inactive: -21.9%
16,O=C(COc1ccccc1Cl)Nc1cc(-c2ccccc2F)nn1-c1ccccc1,inactive: 31.2%
17,CNS(=O)(=O)c1cn(CC(=O)N2CCN(c3ccccc3F)CC2)cc1S(=O)(=O)NC,inactive: 2.94%
18,CCc1ccc(OC(C)c2nc(-c3ccc(-n4cccc4)cc3)no2)cc1 (centres undefined),inactive: 0.985%
19,Cc1ccc(CN(Cc2ccco2)C(=O)COc2ccccc2C)cc1,inactive: -10.7%
20,CCOC(=O)c1ccc(NC(=O)CCc2c(C)nc3c(c(C)nn3-c3ccccc3)c2C)cc1,inactive: 2.21%
21,O=S(=O)(NCc1csc(-c2ccccc2)n1)c1cccc(F)c1,inactive: 5.61%
22,Cc1oc2ccc(O)c(CN(C)Cc3ccccc3)c2c1C(=O)Nc1ccccc1,inactive: -5.73%
23,O=C(CCc1cn(Cc2ccc(F)cc2)c2ccccc12)NCCc1ccc(Cl)cc1,inactive: 1.96%
24,CC(=O)N1CCOc2cc(S(=O)(=O)NC(C)c3ccccc3)c(Cl)cc21 (centres undefined),inactive: 8.21%

row,SMILES,"activity change, negative = cytotoxicity"
1,Cc1cccc(C(=O)Nc2sc3c(c2C(=O)N2CCCCC2)CCC(C)C3)c1 (centres undefined),inactive: -19.2%
2,COc1cccc(NC(=O)CSc2nc3ccc(NC(=O)c4cccs4)cc3s2)c1,inactive: 25.5%
3,Cc1ccc(NC(=O)Nc2nnc(N3CCCC3)s2)cc1,inactive: 15.5%
4,CCOC(=O)c1c(NC(=O)/C=C/c2ccc(C(C)C)cc2)sc2c1CCC2,inactive: 11.2%
5,Cn1cnc(S(=O)(=O)N2CCC(C(=O)NCc3ccccc3Cl)CC2)c1,inactive: -0.142%
6,CCN(c1ccccc1)c1nnc(NC(=O)Nc2ccc(Br)cc2)s1,inactive: 6.26%
7,COc1ccc(NC(=O)Nc2nnc(C)s2)cc1,inactive: 10.1%
8,Cc1ccccc1C(=O)Nc1ccc(OCc2cc(=O)n3cccc(C)c3n2)cc1,inactive: 6.85%
9,CC1=C(c2ccc(C)c(C)c2)S(=O)(=O)N=C1N1CCC(C(=O)N2CCC(C(N)=O)CC2)CC1,inactive: 2.58%
10,O=C1COc2cc(S(=O)(=O)NCc3ccco3)c(Cl)cc2N1,inactive: 4.69%
11,O=c1c2oc3ccccc3c2n(Cc2ccc(Cl)cc2)c(=O)n1Cc1ccco1,inactive: -17.3%
12,CCc1ccccc1N(CC)C(=O)c1c(C)oc2ncnc(N3CCOCC3)c12,inactive: 8.39%
13,CCOC(=O)C1CCN(c2nc3c(S(=O)(=O)c4ccccc4)nnn3c3ccsc23)CC1,inactive: 11.2%
14,Cc1cccc(CN2CCC(CNC(=O)c3c(C)oc4ncnc(N5CCCCC5)c34)CC2)c1,inactive: 17.7%
15,CCN(C(=O)C1CCC(CNS(=O)(=O)c2cccc3nsnc23)CC1)c1ccc(C)c(C)c1 (centres undefined),inactive: -28.5%
16,CC(Sc1nc(=O)cc(N)n1CCc1ccccc1)C(=O)Nc1ccc(Cl)cc1 (centres undefined),inactive: -28.9%
17,CN(C(=O)c1cc2nc(-c3ccco3)cc(C(F)(F)F)n2n1)c1ccc(OC(F)(F)Cl)cc1,inactive: 2.15%
18,CCn1c(=O)sc2cc(NS(=O)(=O)c3ccc(F)c(C)c3)ccc21,inactive: -15.3%
19,Cc1ccc(CSc2cn(CC(=O)N3CCCC3)c3ccccc23)cc1,inactive: -3.14%
20,O=C(CCS(=O)(=O)c1cc(Br)cc2c1N(C(=O)C1CC1)CC2)NCc1ccc(Cl)cc1,inactive: -0.74%
21,O=C(Nc1cc(-c2nc3ccccc3o2)ccc1Cl)c1ccc(N2CCCCC2)c([N+](=O)[O-])c1,inactive: 8.52%
22,CCOC(=O)c1c(-c2ccc(Br)cc2)csc1NC(=O)c1ccc(F)cc1,inactive: -0.884%
23,COC(=O)c1ccccc1NC(=O)CSc1nc2ccccc2nc1Cc1ccccc1OC,inactive: 14.2%
24,COc1ccc(C2c3c(n(C)c4ccccc34)C(=O)N2CC(=O)Nc2ccc(C)c(Cl)c2)cc1 (centres undefined),inactive: 2.59%

row,SMILES,"activity change, negative = cytotoxicity"
1,Cc1ccc(-c2nc(SCCOc3ccccc3C)n3[nH]c(=O)cc3n2)cc1,inactive: 19.4%
2,Cc1ccc(NC(=O)Cn2cc(S(=O)(=O)c3ccc(C)cc3)c(=O)c3cc4c(cc32)OCO4)cc1,inactive: 5.87%
3,COc1ccc(C2CC(=O)c3cc(-c4nc(-c5ccc(Cl)cc5)c(C)s4)c(=O)[nH]c3C2)cc1 (centres undefined),inactive: -1.17%
4,CCc1nnc(SCc2cc(C)ccc2C)c2cc3sc(C)cc3n12,inactive: -9.82%
5,COc1ccc(NC(=O)C(C)n2nc(-c3ccc(C)c(C)c3)ccc2=O)cc1OC (centres undefined),inactive: -0.497%
6,CCOC(=O)c1c(C)[nH]c(C)c1S(=O)(=O)N1CCC(C(=O)N2CCN(c3ccccc3F)CC2)CC1,inactive: 3.31%
7,COc1cccc(NC(=O)CSC2=Nc3ccccc3C3=NC(CC(=O)NC4CCCCC4)C(=O)N23)c1 (centres undefined),inactive: -5.85%
8,CC(=O)c1ccc(N2CCN(c3ccc(NC(=O)c4ccc(F)cc4)cc3C(=O)O)CC2)cc1,inactive: -16.9%
9,Cc1cc(C)c2c(=O)cc(C(=O)Nc3ccccc3C(F)(F)F)oc2c1,inactive: 4.08%
10,CCc1ccc(CNC(=O)c2ccc(NC(=O)N3CC(C)Sc4ccccc43)cc2)cc1 (centres undefined),inactive: -0.633%
11,O=S(=O)(Nc1nc2n(n1)C(c1ccc(F)cc1)C=C(c1ccccc1)N2)c1ccccc1 (centres undefined),inactive: 5.05%
12,COc1ccc(CNC(=O)c2ccc(N3CCCC3)c(NC(=O)NCc3ccc(C)cc3)c2)cc1,inactive: -2.36%
13,Cc1nn2c(-c3cccc(NC(=O)c4ccccc4)c3)nnc2c2ccccc12,inactive: 9.36%
14,CCOC(=O)c1c(C)oc2ccc(N(C(=O)Oc3ccccc3)S(=O)(=O)c3ccc(CC)cc3)cc12,inactive: -1.64%
15,CC(C)c1ccc(OCC(=O)NC(Cc2c[nH]c3ccccc23)C(=O)O)cc1 (centres undefined),inactive: 6.68%
16,Cc1cccc(OC(=O)CSc2nnc(CNC(=O)c3ccccc3)o2)c1C,inactive: 10.8%
17,O=C(Nc1ccc(F)cc1)c1oc2ccccc2c1NC(=O)C12CC3CC(CC(C3)C1)C2,inactive: 15.4%
18,COc1ccc(CCNC(=O)c2ccc3c(c2)N(Cc2c(F)cccc2Cl)C(=O)CS3)cc1OC,inactive: -5.71%
19,Cc1cccc(N2CCN(C(=O)CCc3nnc4n(CC(C)C)c(=O)c5ccccc5n34)CC2)c1C,inactive: -1.74%
20,COc1ccc(-c2cc(C)no2)cc1S(=O)(=O)N1CCOc2ccccc21,inactive: -3.61%
21,COc1ccc(-c2cn3c(n2)sc2cc(C(=O)Nc4ccc(C)c(C)c4)ccc23)cc1,inactive: 16%
22,O=C(Cc1ccccc1)N(Cc1cccnc1)c1nc2c(F)cc(F)cc2s1,inactive: -5.53%
